# The BET-seq Pho4 binding data (Le et al. 2018)
# This is one part of the list. Values were computed here from the reads of four pooled replicates and scatter widely.
# Target: T1, Pho4 (S. cerevisiae) (UniProt P07270)
# T1 sequence: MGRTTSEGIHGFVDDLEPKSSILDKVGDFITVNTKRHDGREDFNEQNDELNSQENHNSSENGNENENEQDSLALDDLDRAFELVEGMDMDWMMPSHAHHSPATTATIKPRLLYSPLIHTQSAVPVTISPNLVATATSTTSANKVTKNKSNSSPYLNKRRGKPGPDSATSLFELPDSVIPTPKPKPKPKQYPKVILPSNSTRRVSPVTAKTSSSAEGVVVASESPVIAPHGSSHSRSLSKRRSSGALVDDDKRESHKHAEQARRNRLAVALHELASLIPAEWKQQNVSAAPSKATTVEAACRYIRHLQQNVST
# Experiment: relative binding free energy (BET-seq); higher = weaker binding
# Details: reference: library average
row,Sequence,relative binding free energy
1,TTTAGCACGTGACTTT,0.03 kcal/mol
2,TGTTGCACGTGGGTAA,-0.13 kcal/mol
3,TTTTACACGTGTACTG,0.1 kcal/mol
4,GTGACCACGTGTGTGT,0.04 kcal/mol
5,GATCGCACGTGATGGG,0.29 kcal/mol
6,TGTATCACGTGCGGAA,0.12 kcal/mol
7,CTTGTCACGTGCTGGT,0.05 kcal/mol
8,GTTTGCACGTGATTTA,0.03 kcal/mol
9,GTTAACACGTGTTTCA,0.15 kcal/mol
10,AGGAGCACGTGTTCTG,-0.14 kcal/mol
11,GTTATCACGTGGGCTA,0.03 kcal/mol
12,TGATACACGTGTGAGG,0 kcal/mol
13,GTAAGCACGTGAGGGC,0 kcal/mol
14,TTGCACACGTGTAGAG,0.1 kcal/mol
15,AAGGTCACGTGCGTGG,0.05 kcal/mol
16,CGATACACGTGTTGTG,0.2 kcal/mol
17,TTGGGCACGTGATATT,0.06 kcal/mol
18,CGAGGCACGTGGGTAA,-0.07 kcal/mol
19,GGTTTCACGTGGTTCA,0.31 kcal/mol
20,GCGGACACGTGGAAGG,0.14 kcal/mol
21,GCGTACACGTGCGGGG,-0.02 kcal/mol
22,AGGCGCACGTGTCGGT,-0.11 kcal/mol
23,TTGACCACGTGGGTGA,-0.28 kcal/mol

row,Sequence,relative binding free energy
1,GCTATCACGTGGGGTA,0 kcal/mol
2,GGGTACACGTGTAGTT,0.18 kcal/mol
3,TAGGGCACGTGTCTTT,-0.09 kcal/mol
4,CGACTCACGTGGTGGG,0.01 kcal/mol
5,TTCATCACGTGGTTTA,0.22 kcal/mol
6,GGATTCACGTGTTATA,0.18 kcal/mol
7,TCTTTCACGTGTGGTG,0.39 kcal/mol
8,GTTTGCACGTGTCGGG,0.08 kcal/mol
9,AGAAGCACGTGCTGGT,-0.17 kcal/mol
10,GGTGACACGTGGGGAG,-0.05 kcal/mol
11,GCGATCACGTGGGTTA,0.13 kcal/mol
12,GGTTGCACGTGTCCGT,0.06 kcal/mol
13,TTGAGCACGTGGGGCA,-0.24 kcal/mol
14,TTTATCACGTGCTGTT,0.12 kcal/mol
15,CGAGGCACGTGAGAGT,0.01 kcal/mol
16,TAAGACACGTGAGTTG,0.2 kcal/mol
17,TGTTTCACGTGTGAAC,0.33 kcal/mol
18,AGGGACACGTGAGGGA,0.19 kcal/mol
19,GTGTGCACGTGGGTAC,-0.3 kcal/mol
20,ATGTACACGTGAAAGT,0.22 kcal/mol
21,CAGATCACGTGGCGGT,0.15 kcal/mol
22,TTTGGCACGTGTGCCT,-0.12 kcal/mol
23,AGTTACACGTGGATGA,0.03 kcal/mol

row,Sequence,relative binding free energy
1,TGGACCACGTGGAGGT,-0.06 kcal/mol
2,GGCGGCACGTGAAGAT,0.34 kcal/mol
3,TTGGTCACGTGATCGA,0.23 kcal/mol
4,TGGGACACGTGGTAGT,0.06 kcal/mol
5,ATGTTCACGTGTGTCA,0.22 kcal/mol
6,GGTATCACGTGACTGT,0.3 kcal/mol
7,AGTTTCACGTGTTCAG,0.29 kcal/mol
8,AAGCACACGTGTGGGG,0.05 kcal/mol
9,CTGGGCACGTGGGAAT,-0.12 kcal/mol
10,TGTGTCACGTGATAAT,0.21 kcal/mol
11,TTAGTCACGTGCGGGA,0.13 kcal/mol
12,AAATGCACGTGTCGGG,-0.02 kcal/mol
13,GGGTACACGTGCGGAT,0.15 kcal/mol
14,TAATGCACGTGAGGAT,0.23 kcal/mol
15,GTGGTCACGTGGGTAC,0.06 kcal/mol
16,TAGGTCACGTGTGATA,0.18 kcal/mol
17,AGTGTCACGTGTGACG,0.15 kcal/mol
18,GGTCGCACGTGTATTT,0.05 kcal/mol
19,AGTTTCACGTGGGGGG,0.19 kcal/mol
20,ATGCTCACGTGGTATT,0.18 kcal/mol
21,TGAGTCACGTGGCATT,0 kcal/mol
22,TAGTTCACGTGGTAAG,0.28 kcal/mol
23,GTTTTCACGTGCCTTT,0.21 kcal/mol

row,Sequence,relative binding free energy
1,TTTCTCACGTGGTTAA,0.08 kcal/mol
2,TTGTACACGTGATTCT,0.24 kcal/mol
3,AGTGGCACGTGGCGAT,-0.17 kcal/mol
4,GTGTGCACGTGGGCGG,-0.22 kcal/mol
5,GGCTCCACGTGGAGGG,-0.13 kcal/mol
6,CGAGGCACGTGTGGAT,-0.15 kcal/mol
7,TTGTTCACGTGGAATT,0.33 kcal/mol
8,TGGGGCACGTGGAACT,-0.02 kcal/mol
9,GTTTTCACGTGCTATT,0.22 kcal/mol
10,GGATGCACGTGACTTG,0.08 kcal/mol
11,AGCGGCACGTGCGGTA,-0.11 kcal/mol
12,CGTTTCACGTGTGCAT,0.25 kcal/mol
13,TTGAGCACGTGTGCAG,-0.05 kcal/mol
14,CTTTGCACGTGGAATG,0.06 kcal/mol
15,TGTTACACGTGATTCG,0.23 kcal/mol
16,GGTTTCACGTGGTGTC,0.17 kcal/mol
17,TGGTTCACGTGAGTTA,0.38 kcal/mol
18,GACTGCACGTGTGTGG,0.06 kcal/mol
19,TGTTGCACGTGGGGAG,-0.09 kcal/mol
20,GGGTACACGTGTCAGG,0.13 kcal/mol
21,ATTTTCACGTGGTTAA,0.24 kcal/mol
22,GGTTCCACGTGGGTCT,-0.01 kcal/mol
23,TAAGACACGTGTAGTT,0.01 kcal/mol

row,Sequence,relative binding free energy
1,TGGGACACGTGAAAGT,0.3 kcal/mol
2,GGTGGCACGTGTGTTT,-0.11 kcal/mol
3,TCTGTCACGTGGGAAT,0.07 kcal/mol
4,TTTTACACGTGATTGC,0.15 kcal/mol
5,AGGTGCACGTGATTGT,0.14 kcal/mol
6,CTGGTCACGTGAGCTG,0.11 kcal/mol
7,GTTACCACGTGTGAGG,0.21 kcal/mol
8,TTTGGCACGTGTTGTT,-0.11 kcal/mol
9,TATGGCACGTGGTAAG,-0.14 kcal/mol
10,GTGTTCACGTGAAAAG,0.44 kcal/mol
11,CGCGTCACGTGGGGGG,0.02 kcal/mol
12,CTTGTCACGTGGATTG,0.21 kcal/mol
13,AGTGCCACGTGGCTGG,-0.17 kcal/mol
14,TCGGGCACGTGGGCGG,-0.24 kcal/mol
15,TTTACCACGTGGTTTG,-0.01 kcal/mol
16,GGTAACACGTGGTAGC,0.03 kcal/mol
17,GGGTGCACGTGGAGGC,-0.03 kcal/mol
18,TGTTTCACGTGTTACG,0.2 kcal/mol
19,AGATTCACGTGTAGAG,0.24 kcal/mol
20,AGGTTCACGTGGTTTT,0.23 kcal/mol
21,TGAGTCACGTGCGGTT,0.12 kcal/mol
22,CAGGTCACGTGTTAGG,0.19 kcal/mol
23,TATAACACGTGGGGTT,-0.15 kcal/mol
